# In a collection of fitness landscapes (doi:10.1126/science.1257360):
# Some of the results follow.
# B1: PhoQ; a variant is named by its letters at X, in order, P23837 (parent)
# chain: MKKLLRLFFPLSLRVRFLLATAAVVLVLSLAYGMVALIGYSVSFDKTTFRLLRGESNLFYTLAKWENNKLHVELPENIDKQSPTMTLIYDENGQLLWAQRDVPWLMKMIQPDWLKSNGFHEIEADVNDTSLLLSGDHSIQQQLQEVREDDDDAEMTHSVAVNVYPATSRMPKLTIVVVDTIPVELKSSYMVWSWFIYVLSANLLLVIPLLWVAAWWSLRPIEALAKEVRELEEHNRELLNPATTRELTSLVRNLNRLLKSERERYDKYRTTLTDLTHSLKTPLXXLQXXLRSLRSEKMSVSDAEPVMLEQISRISQQIGYYLHRASMRGGTLLSRELHPVAPLLDNLTSALNKVYQRKGVNISLDISPEISFVGEQNDFVEVMGNVLDNACKYCLEFVEISARQTDEHLYIVVEDDGPGIPLSKREVIFDRGQRVDTLRPGQGVGLAVAREITEQYEGKIVAGESMLGGARMEVIFGRQHSAPKDE
# Variants of: B1
# Experiment: enrichment ratio after two sorts for PhoP signalling (ratio (wild type AVST 3.29)); higher = more functional
# Conditions: with PhoP (E. coli)
row,Variant,enrichment ratio
1,MDSQ,≤ 0.25
2,QLKC,≤ 0.25
3,HDHD,≤ 0.25
4,DEPE,≤ 0.25
5,KTKV,≤ 0.25
6,LSWN,≤ 0.25
7,TSSV,20
8,RNGF,≤ 0.25
9,LCSF,≤ 0.25
10,HHLS,≤ 0.25
11,AAPR,≤ 0.25
12,DQVY,≤ 0.25
13,ANTE,≤ 0.25
14,VDYQ,≤ 0.25
15,VSNW,≤ 0.25
16,HGER,≤ 0.25
17,SDQK,≤ 0.25
18,YSGY,≤ 0.25
19,CMFP,≤ 0.25
20,RKAD,≤ 0.25
21,LSAS,≤ 0.25
22,PAII,≤ 0.25
23,LYNF,≤ 0.25
24,RHEH,≤ 0.25

row,Variant,enrichment ratio
1,KFLQ,≤ 0.25
2,KSMA,≤ 0.25
3,TSEN,≤ 0.25
4,AFRI,0.554
5,GCRI,≤ 0.25
6,ECLW,≤ 0.25
7,RPCC,≤ 0.25
8,WLTN,≤ 0.25
9,PIAW,≤ 0.25
10,HLHN,≤ 0.25
11,KFLM,≤ 0.25
12,WLYG,≤ 0.25
13,LAQN,≤ 0.25
14,LNPG,≤ 0.25
15,RCDH,≤ 0.25
16,LEKR,≤ 0.25
17,QVQP,≤ 0.25
18,EARR,≤ 0.25
19,HSEF,≤ 0.25
20,TLVM,≤ 0.25
21,QLNA,≤ 0.25
22,SMRN,≤ 0.25
23,YATF,≤ 0.25
24,EYKF,≤ 0.25

row,Variant,enrichment ratio
1,NPIQ,≤ 0.25
2,KRYT,≤ 0.25
3,FYIT,≤ 0.25
4,DIDI,≤ 0.25
5,GIEW,≤ 0.25
6,HPKF,≤ 0.25
7,QTTH,≤ 0.25
8,AQHD,≤ 0.25
9,QRDN,≤ 0.25
10,DVPN,≤ 0.25
11,DCRM,≤ 0.25
12,LPND,≤ 0.25
13,DTQS,≤ 0.25
14,NGRP,≤ 0.25
15,DLAE,≤ 0.25
16,YNWI,≤ 0.25
17,TKSL,8.47
18,YYDV,≤ 0.25
19,SFSE,≤ 0.25
20,LAKP,≤ 0.25
21,IACC,≤ 0.25
22,MISV,4.88
23,SGRL,≤ 0.25
24,KPHT,≤ 0.25

row,Variant,enrichment ratio
1,YALH,5.84
2,YVCG,≤ 0.25
3,NTVS,≤ 0.25
4,LKCG,≤ 0.25
5,GQLP,≤ 0.25
6,PSAQ,≤ 0.25
7,RHLW,≤ 0.25
8,DAAQ,≤ 0.25
9,ESQC,≤ 0.25
10,TWFP,≤ 0.25
11,PFGI,≤ 0.25
12,RENT,≤ 0.25
13,NLGT,≤ 0.25
14,RCNF,≤ 0.25
15,RAPR,≤ 0.25
16,TFSF,≤ 0.25
17,VILQ,≤ 0.25
18,NECM,28.2
19,KFGQ,≤ 0.25
20,LIFH,0.405
21,DVLL,≤ 0.25
22,GGIV,2.44
23,AFGF,≤ 0.25
24,FHPT,≤ 0.25

row,Variant,enrichment ratio
1,EINS,≤ 0.25
2,HQTV,≤ 0.25
3,VRTP,≤ 0.25
4,FMTE,≤ 0.25
5,AEKC,≤ 0.25
6,GFYA,≤ 0.25
7,YLHN,≤ 0.25
8,AAIF,0.484
9,SIQH,5.79
10,RYKS,≤ 0.25
11,TNFP,≤ 0.25
12,QLPN,≤ 0.25
13,RYIW,≤ 0.25
14,REIN,≤ 0.25
15,INKN,≤ 0.25
16,TFIP,≤ 0.25
17,RAAM,≤ 0.25
18,DCGR,≤ 0.25
19,QQHD,≤ 0.25
20,NHNL,≤ 0.25
21,DVRL,≤ 0.25
22,QETV,≤ 0.25
23,VGNS,≤ 0.25
24,NEFY,≤ 0.25

row,Variant,enrichment ratio
1,MLGI,≤ 0.25
2,IRSE,≤ 0.25
3,YGLS,7.31
4,FSWA,≤ 0.25
5,HICV,≤ 0.25
6,MEYL,3.47
7,TDWQ,≤ 0.25
8,NMSQ,≤ 0.25
9,HYMK,≤ 0.25
10,RQVA,≤ 0.25
11,VGRE,≤ 0.25
12,FWNW,≤ 0.25
13,TPNI,≤ 0.25
14,FINC,≤ 0.25
15,EAHY,≤ 0.25
16,GHIN,≤ 0.25
17,TTIR,≤ 0.25
18,MWGD,≤ 0.25
19,SENM,≤ 0.25
20,SFFE,≤ 0.25
21,TMDW,≤ 0.25
22,LQFN,≤ 0.25
23,SKFF,≤ 0.25
24,KWIH,≤ 0.25

row,Variant,enrichment ratio
1,TSFC,2.12
2,RVAN,≤ 0.25
3,ISYQ,≤ 0.25
4,SVFP,≤ 0.25
5,EDHN,≤ 0.25
6,RRCI,≤ 0.25
7,KFKG,≤ 0.25
8,MVGY,≤ 0.25
9,DHVF,≤ 0.25
10,NNSC,≤ 0.25
11,FGCR,≤ 0.25
12,WDQR,≤ 0.25
13,LVNW,≤ 0.25
14,TWCK,≤ 0.25
15,ICLN,3.97
16,ERHC,≤ 0.25
17,DRLY,≤ 0.25
18,VVDM,≤ 0.25
19,ICKI,≤ 0.25
20,MCLP,≤ 0.25
21,SDSY,≤ 0.25
22,FSSM,≤ 0.25
23,STHM,≤ 0.25
24,QYSF,≤ 0.25

row,Variant,enrichment ratio
1,NRCI,≤ 0.25
2,SHPT,≤ 0.25
3,DVFE,≤ 0.25
4,TQTK,≤ 0.25
5,NEFV,≤ 0.25
6,AVNI,≤ 0.25
7,EYFR,≤ 0.25
8,QAYF,4.32
9,FQTA,≤ 0.25
10,LLMF,≤ 0.25
11,AQFS,0.395
12,IASY,≤ 0.25
13,QPVW,≤ 0.25
14,WEQG,≤ 0.25
15,NCRD,≤ 0.25
16,NCFN,≤ 0.25
17,TKND,12.6
18,VQMI,≤ 0.25
19,WNDS,1.17
20,KFYD,≤ 0.25
21,HAQG,≤ 0.25
22,SWLV,≤ 0.25
23,VHEQ,≤ 0.25
24,FKKY,≤ 0.25

row,Variant,enrichment ratio
1,WMYW,≤ 0.25
2,DNME,≤ 0.25
3,KLFY,≤ 0.25
4,HMAL,≤ 0.25
5,KNSS,≤ 0.25
6,ISLP,≤ 0.25
7,PHCD,≤ 0.25
8,FRNE,≤ 0.25
9,PFRN,≤ 0.25
10,WDFD,≤ 0.25
11,YTKR,≤ 0.25
12,NFNS,≤ 0.25
13,HHHN,≤ 0.25
14,YIRK,≤ 0.25
15,RHQG,≤ 0.25
16,ADVR,≤ 0.25
17,FLNA,≤ 0.25
18,TGNA,0.391
19,MGWY,4.8
20,MIIL,≤ 0.25
21,MWHL,≤ 0.25
22,YEYL,≤ 0.25
23,VGLE,≤ 0.25
24,MIPI,≤ 0.25

row,Variant,enrichment ratio
1,ECIM,≤ 0.25
2,GVTC,≤ 0.25
3,NVCR,≤ 0.25
4,EHGV,≤ 0.25
5,RVQW,≤ 0.25
6,DHLS,≤ 0.25
7,NALL,5.99
8,ENTD,≤ 0.25
9,PCFS,≤ 0.25
10,QAYE,≤ 0.25
11,NYFM,≤ 0.25
12,YIIV,≤ 0.25
13,DSNS,≤ 0.25
14,RIIE,≤ 0.25
15,LEQL,≤ 0.25
16,HISL,1.69
17,VNTD,≤ 0.25
18,DCGC,≤ 0.25
19,APYT,≤ 0.25
20,LDMP,≤ 0.25
21,IVAN,≤ 0.25
22,QNYW,≤ 0.25
23,DPYR,≤ 0.25
24,LGST,≤ 0.25

row,Variant,enrichment ratio
1,KVEG,≤ 0.25
2,IVPY,≤ 0.25
3,EASQ,≤ 0.25
4,NDMC,≤ 0.25
5,QFMN,≤ 0.25
6,WIRV,≤ 0.25
7,TNGH,7.13
8,PDIP,≤ 0.25
9,TCPC,≤ 0.25
10,PLHE,≤ 0.25
11,YFYG,≤ 0.25
12,SNDI,≤ 0.25
13,DWPA,≤ 0.25
14,VHVM,≤ 0.25
15,MIMQ,9.67
16,INVW,≤ 0.25
17,SKQR,≤ 0.25
18,WFRY,≤ 0.25
19,DRWR,≤ 0.25
20,HDRS,≤ 0.25
21,VPSP,≤ 0.25
22,SGAY,15.2
23,LYMG,≤ 0.25
24,KRHM,≤ 0.25

row,Variant,enrichment ratio
1,PAKY,≤ 0.25
2,WDMW,≤ 0.25
3,LQNP,0.774
4,MWTK,≤ 0.25
5,DNYH,≤ 0.25
6,LRQY,≤ 0.25
7,TMNT,11.9
8,AHSS,≤ 0.25
9,KNRI,≤ 0.25
10,RNAY,≤ 0.25
11,RHWL,≤ 0.25
12,MYHG,≤ 0.25
13,EDGC,≤ 0.25
14,RAVT,≤ 0.25
15,TNAD,≤ 0.25
16,WPCS,≤ 0.25
17,PSAA,≤ 0.25
18,WGFK,≤ 0.25
19,SGPP,≤ 0.25
20,APRY,≤ 0.25
21,TIDV,≤ 0.25
22,QCPE,≤ 0.25
23,DWEA,≤ 0.25
24,AGVP,≤ 0.25

row,Variant,enrichment ratio
1,HGNA,≤ 0.25
2,AYHR,≤ 0.25
3,NWWL,0.392
4,HLTW,≤ 0.25
5,FWVT,≤ 0.25
6,VQGI,≤ 0.25
7,IWRE,≤ 0.25
8,ASKW,≤ 0.25
9,RDAK,≤ 0.25
10,DLQW,≤ 0.25
11,KAEA,≤ 0.25
12,GLWL,≤ 0.25
13,TNGQ,6.25
14,TPER,≤ 0.25
15,TVWT,≤ 0.25
16,SPVT,≤ 0.25
17,FDPN,≤ 0.25
18,RGEW,≤ 0.25
